Reference: patent US20230159453A1 (COCRYSTAL PHARMA, INC., priority 2020, published 2023)

These molecules were tested against Noro protease (Norovirus, UniProt Q83883) (assay: Norovirus protease inhibition assay (Noro-Norwalk FRET protease assay)). Conditions: IC50 (μM), peptide substrate 10 μM, 90 minutes at 37° C., compounds 200 μM to 10.2 nM.

| Compound | IC50 |
| --- | --- |
| CC(C)(c1cccc(Cl)c1)[C@H](OC(=O)N[C@@H](CC1CCCCC1)C(=O)N[C@@H](C[C@@H]1CCNC1=O)C(=O)C(=O)NC1CC1)c1cccc(F)c1 [Compound C185, (R)-2-(3-chlorophenyl)-1-(3-fluorophenyl)-2-methylpropyl ((S)-3-cyclohexyl-1-(((S)-4-(cyclopropylamino)-3,4-dioxo-1-((S)-2-oxopyrrolidin-3-yl)butan-2-yl)amino)-1-oxopropan-2-yl)carbamate] | 28.2 µM |
| CC(C)(c1cccc(Cl)c1)C(OC(=O)N[C@@H](CC1CCCCC1)C(=O)N[C@@H](C[C@@H]1CCNC1=O)C(=O)C(=O)NC1CC1)c1ccccc1Cl (stereo partly drawn) [Compound C186, 1-(2-Chlorophenyl)-2-(3-chlorophenyl)-2-methylpropyl ((S)-3-cyclohexyl-1-(((S)-4-(cyclopropylamino)-3,4-dioxo-1-((S)-2-oxopyrrolidin-3-yl)butan-2-yl)amino)-1-oxopropan-2-yl) carbamate] | 30.8 µM |
| CC(C)C[C@H](NC(=O)OC(c1cccc(Cl)c1)C1(c2cccc(Cl)c2)CC1)C(=O)N[C@@H](C[C@@H]1CCNC1=O)C(=O)C(=O)NC1CC1 (stereo partly drawn) [Compound C187, (3-chlorophenyl)(1-(3-chlorophenyl)cyclopropyl)methyl ((S)-1-(((S)-4-(cyclopropylamino)-3,4-dioxo-1-((S)-2-oxopyrrolidin-3-yl)butan-2-yl)amino)-4-methyl-1-oxopentan-2-yl)carbamate] | 81.9 µM |
| CC(C)(C)C(=O)N1CCC2(CC1)CC(CC(NC(=O)[C@H](CC1CCCCC1)NC(=O)OCc1cccc(Cl)c1)C(=O)C(=O)NC1CC1)C(=O)N2 (stereo partly drawn) [Compound C188, 3-Chlorobenzyl ((2S)-3-cyclohexyl-1-((4-(cyclopropylamino)-3,4-dioxo-1-(2-oxo-8-pivaloyl-1,8-diazaspiro[4.5]decan-3-yl)butan-2-yl)amino)-1-oxopropan-2-yl)carbamate] | 46.6 µM |
| CS(=O)(=O)N1CCC2(CC1)CC(CC(C=O)NC(=O)[C@H](CC1CCCCC1)NC(=O)OC1CCCC1Cc1cccc(Cl)c1)C(=O)N2 (stereo partly drawn) [Compound C189, 2-(3-Chlorobenzyl)cyclopentyl ((2S)-3-cyclohexyl-1-((1-(8-(methylsulfonyl)-2-oxo-1,8-diazaspiro[4.5]decan-3-yl)-3-oxopropan-2-yl)amino)-1-oxopropan-2-yl)carbamate] | 3.3 µM |
| COc1cccc2[nH]c(C(=O)N[C@@H](CC3CCCCC3)C(=O)NC(CC3CC4(CCOCC4)NC3=O)C(=O)C(=O)NC3CC3)cc12 (stereo partly drawn) [Compound C191, N-((2S)-3-Cyclohexyl-1-((4-(cyclopropylamino)-3,4-dioxo-1-(2-oxo-8-oxa-1-azaspiro[4.5]decan-3-yl)butan-2-yl)amino)-1-oxopropan-2-yl)-4-methoxy-1H-indole-2-carboxamide] | 91.9 µM |
| O=C(N[C@@H](CC1CCCCC1)C(=O)NC(CC1CC2(CCCCC2)NC1=O)C(=O)C(=O)NC1CC1)OC1CCCC1Cc1cccc(Cl)c1 (stereo partly drawn) [Compound C192, 2-(3-Chlorobenzyl)cyclopentyl ((2S)-3-cyclohexyl-1-((4-(cyclopropylamino)-3,4-dioxo-1-(2-oxo-1-azaspiro[4.5]decan-3-yl)butan-2-yl)amino)-1-oxopropan-2-yl)carbamate] | 27.7 µM |
| COc1cccc2[nH]c(C(=O)N[C@@H](CC3CCCCC3)C(=O)NC(C=O)CC3CC4(CCCCC4)NC3=O)cc12 (stereo partly drawn) [Compound C193, N-((2S)-3-Cyclohexyl-1-oxo-1-((1-oxo-3-(2-oxo-1-azaspiro[4.5]decan-3-yl)propan-2-yl)amino)propan-2-yl)-4-methoxy-1H-indole-2-carboxamide] | 3.8 µM |
| CC(C)C[C@H](NC(=O)OC1(Cc2ccccc2)CCC1)C(=O)N[C@@H](C[C@@H]1CCNC1=O)C(=O)CCl [Compound C194, 1-Benzylcyclobutyl ((S)-1-(((S)-4-chloro-3-oxo-1-((S)-2-oxopyrrolidin-3-yl)butan-2-yl)amino)-4-methyl-1-oxopentan-2-yl) carbamate] | > 200 µM |
| O=C(N[C@@H](CC1CCCCC1)C(=O)NC(CC1CC2(CCCCC2)NC1=O)C(=O)C(=O)NC1CC1)OC(Cc1cccc(Cl)c1)c1cccc(Cl)c1 (stereo partly drawn) [Compound C195, 1,2-Bis(3-chlorophenyl)ethyl ((2S)-3-cyclohexyl-1-((4-(cyclopropylamino)-3,4-dioxo-1-(2-oxo-1-azaspiro[4.5]decan-3-yl)butan-2-yl)amino)-1-oxopropan-2-yl)carbamate] | > 200 µM |
| CC(C)C[C@H](NC(=O)OC1CCCC1Cc1cccc(Cl)c1)C(=O)N[C@@H](C[C@@H]1CCNC1=O)C(=O)C(=O)NC1CC1 (stereo partly drawn) [Compound C196, 2-(3-Chlorobenzyl)cyclopentyl ((S)-1-(((S)-4-(cyclopropylamino)-3,4-dioxo-1-((S)-2-oxopyrrolidin-3-yl)butan-2-yl)amino)-4-methyl-1-oxopentan-2-yl)carbamate] | 26.3 µM |
| O=C(N[C@@H](CC1CCCCC1)C(=O)N[C@@H](CC1CC2(CCCCC2)NC1=O)C(=O)CCl)OCc1cccc(Cl)c1 (stereo partly drawn) [Compound C197, 3-Chlorobenzyl ((2S)-1-(((2S)-4-chloro-3-oxo-1-(2-oxo-1-azaspiro[4.5]decan-3-yl)butan-2-yl)amino)-3-cyclohexyl-1-oxopropan-2-yl)carbamate] | 155 µM |
| CC1(C)CC(CC(C=O)NC(=O)[C@H](CC2CCCCC2)NC(=O)OCc2cccc(Cl)c2)C(=O)N1 (stereo partly drawn) [Compound C198, 3-chlorobenzyl ((2S)-3-cyclohexyl-1-((1-(5,5-dimethyl-2-oxopyrrolidin-3-yl)-3-oxopropan-2-yl)amino)-1-oxopropan-2-yl)carbamate] | 3.3 µM |
| CC(C)C[C@H](NC(=O)OC1CCCC1Cc1ccccc1)C(=O)N[C@@H](C[C@@H]1CCNC1=O)C(=O)CCl (stereo partly drawn) [Compound C199, 2-Benzylcyclopentyl ((S)-1-(((S)-4-chloro-3-oxo-1-((S)-2-oxopyrrolidin-3-yl)butan-2-yl)amino)-4-methyl-1-oxopentan-2-yl)carbamate] | 92.8 µM |
| O=C[C@H](CC1CC2(CCOCC2)NC1=O)NC(=O)[C@H](CC1CCCCC1)NC(=O)OCc1cccc(Cl)c1 (stereo partly drawn) [Compound C200, 3-Chlorobenzyl ((2S)-3-cyclohexyl-1-oxo-1-(((2S)-1-oxo-3-(2-oxo-8-oxa-1-azaspiro[4.5]decan-3-yl)propan-2-yl)amino)propan-2-yl)carbamate] | 1.2 µM |
| CC(C)C[C@H](NC(=O)OC(c1ccc(Cl)cc1)C1(c2cccc(Cl)c2)CC1)C(=O)N[C@@H](C[C@@H]1CCNC1=O)C(=O)C(=O)NC1CC1 (stereo partly drawn) [Compound C201, (4-Chlorophenyl)(1-(3-chlorophenyl)cyclopropyl) methyl ((S)-1-(((S)-4-(cyclopropylamino)-3,4-dioxo-1-((S)-2-oxopyrrolidin-3-yl)butan-2-yl)amino)-4-methyl-1-oxopentan-2-yl) carbamate] | 2.7 µM |
| CC(C)(C)C(=O)N1CCC2(CC1)CC(CC(C=O)NC(=O)[C@H](CC1CCCCC1)NC(=O)OC1CCCC1Cc1cccc(Cl)c1)C(=O)N2 (stereo partly drawn) [Compound C202, 2-(3-Chlorobenzyl) cyclopentyl ((2S)-3-cyclohexyl-1-oxo-1-((1-oxo-3-(2-oxo-8-pivaloyl-1,8-diazaspiro[4.5]decan-3-yl)propan-2-yl)amino)propan-2-yl)carbamate] | 7.3 µM |
| CC(C)C[C@H](NC(=O)OC(c1cccc(Cl)c1)C1(c2cccc(Cl)c2)CC1)C(=O)N[C@H](C=O)C[C@@H]1CCNC1=O (stereo partly drawn) [Compound C203, (3-chlorophenyl)(1-(3-chlorophenyl)cyclopropyl)methyl ((S)-4-methyl-1-oxo-1-(((S)-1-oxo-3-((S)-2-oxopyrrolidin-3-yl)propan-2-yl)amino)pentan-2-yl)carbamate] | 1.5 µM |
| CC(C)C[C@H](NC(=O)OC1(Cc2cccc(Cl)c2)CCC1)C(=O)NC(C=O)CC1CC2(CCOCC2)NC1=O (stereo partly drawn) [Compound C204] | 1.8 µM |
| CC1(C)CC(CC(NC(=O)[C@H](CC2CCCCC2)NC(=O)OC(c2cccc(F)c2)C(C)(C)c2cccc(Cl)c2)C(=O)C(=O)NC2CC2)C(=O)N1 (stereo partly drawn) [Compound C205, 2-(3-Chlorophenyl)-1-(3-fluorophenyl)-2-methylpropyl ((2S)-3-cyclohexyl-1-((4-(cyclopropylamino)-1-(5,5-dimethyl-2-oxopyrrolidin-3-yl)-3,4-dioxobutan-2-yl)amino)-1-oxopropan-2-yl)carbamate] | 184 µM |
| O=C(N[C@@H](CC1CCCCC1)C(=O)NC(CC1CC2(CCOCC2)NC1=O)C(=O)C(=O)NC1CC1)OC1CCCC1Cc1cccc(Cl)c1 (stereo partly drawn) [Compound C206, 2-(3-Chlorobenzyl)cyclopentyl ((2S)-3-cyclohexyl-1-((4-(cyclopropylamino)-3,4-dioxo-1-(2-oxo-8-oxa-1-azaspiro[4.5]decan-3-yl)butan-2-yl)amino)-1-oxopropan-2-yl)carbamate] | 76.3 µM |
| CC(C)C[C@H](NC(=O)OC(c1ccccc1)C(C)(C)c1cccc(Cl)c1)C(=O)N[C@@H](C[C@@H]1CCNC1=O)C(=O)C(N)=O (stereo partly drawn) [Compound C207, 2-(3-Chlorophenyl)-2-methyl-1-phenylpropyl ((S)-1-(((S)-4-amino-3,4-dioxo-1-((S)-2-oxopyrrolidin-3-yl)butan-2-yl)amino)-4-methyl-1-oxopentan-2-yl)carbamate] | 106 µM |
| CC(C)C[C@H](NC(=O)OC(c1ccccc1)C(C)(C)c1cccc(Cl)c1)C(=O)N[C@@H](C[C@@H]1CCNC1=O)C(=O)CCl (stereo partly drawn) [Compound C209, 2-(3-Chlorophenyl)-2-methyl-1-phenylpropyl ((S)-1-(((S)-4-chloro-3-oxo-1-((S)-2-oxopyrrolidin-3-yl)butan-2-yl)amino)-4-methyl-1-oxopentan-2-yl)carbamate] | 88 µM |
| CC(C)(C)C(=O)N1CCC2(CC1)CC(CC(NC(=O)[C@H](CC1CCCCC1)NC(=O)OC1CCCC1Cc1cccc(Cl)c1)C(=O)C(=O)NC1CC1)C(=O)N2 (stereo partly drawn) [Compound C210, 2-(3-Chlorobenzyl) cyclopentyl ((2S)-3-cyclohexyl-1-((4-(cyclopropylamino)-3,4-dioxo-1-(2-oxo-8-pivaloyl-1,8-diazaspiro[4.5]decan-3-yl)butan-2-yl)amino)-1-oxopropan-2-yl) carbamate] | > 200 µM |
